The source gives no read counts; variants with many changes may rest on few reads.

First the molecules themselves.
B1: LINE1-mini (parent)
chain: GGCAGAGCUCAACACAGCGUGGCAAAGUGGCUGUGGCUAGACUGCC

Variants of B1 are the subject of this series. Briefly: self-cleavage, relative activity (ratio to wild type); higher = more cleavage; in vitro, sequencing; the parent is a self-cleaving ribozyme.
For G2U G7A A12C G19C C23U A25U C31U, the self-cleavage came to 0.03.
With C3A A11C C13U C23A G36A A39G the figure was 0.01.
For G2U G5C G21U G30U, the self-cleavage amounted to 0.03.
With G2U G5C A6G U34G the figure was 0.01; with G2U C23G G29C, 0.51.
For the variant G2U C31G A39G, the self-cleavage came to 0.01.
With G2U U38C C45A, the self-cleavage is 0.23.
For G2U G33C G44A, the self-cleavage was determined as 0.01.
For G2U C23U G35U C42A G44C C46A, the self-cleavage was determined as 0.03.
Take G2U G5A G40U: the self-cleavage amounted to 0.02.
With G2U G19U A24U the figure was 0.02; with G2U G5A C31A C46A, 0; with G2U G19C G21C G44C, 0.03.
With G2U G27A G33A the figure was 0.04.
C3A A4C G21A A24C: the self-cleavage stood at 0.16.
C3A A6G G27A G35A: the self-cleavage is 0.12.
With G2U U38A C42A the figure was 0.04; with C3A A6C C13A A16U G19A, 0.46.
With G2U C23U G36C C42U the figure was 0.1; with C3A A4U U9A A12C A41U, 0.02.
In the case of C3A A6U C8U C10A A12U C18U, the self-cleavage worked out at 0.03.
With G2U G29A C37U, the self-cleavage was determined as 0.02.
With G2U U32G G33U the figure was 0.02.
With G2U G5A A16C G29U the figure was 0.01; with G2U U20C A24C U38G C46A, 0.01.
With G2U U32G C37U A39G the figure was 0.01; with G2U G5U U9G A14G G30A U38G, 0; with G2U G17A G40A, 0.04.
C3A A4C G5C: the self-cleavage worked out at 0.34.
With C3A A4G U28A G35A the figure was 0.12.
With G2U U9C C23A U32G G36C the figure was 0.02.
With G2U G22C G29A G35C C37A C45U, the self-cleavage worked out at 0.1.
Turning to G2U G7C C13A G19U G33C, the self-cleavage was 0.02.
Take C3A A4C A12C G30A C37A: the self-cleavage came to 0.06.
With C3A A11G C18A the figure was 0.08.
With C3A A4U C18U G27U C45G the figure was 0.19.
With G2U G22U G29U the figure was 0.05; with G2U G27A U34A, 0.03; with C3A A11C G33U, 0.04.
With G2U G5C C10G A14G G22U U32G G44C, the self-cleavage came out at 0.
Regarding G2U C23G G27A, the self-cleavage turned out to be 0.07.
Turning to G2U G5A C31A G35U, the self-cleavage was 0.01.
With C3A A4U G40U the figure was 0.11; with C3A A11C G30U G35A G44C, 0.02.
With G2U G5A A11G A12U the figure was 0; with G2U G17C G35U, 0.06; with G2U G7U A25C, 0.02.
With C3A A11G A16C C37U the figure was 0.01; with G2U G5C U32C G33U C42A, 0.01.
G2U G5U C18A: the self-cleavage was 0.03.
With G2U G22U A26G G36A the figure was 0.02.
With G2U G7A A14C C18A A26C G44A the figure was 0.03; with G2U G27U C42G G44A, 0.
With G2U U20A C46G the figure was 0.02; with C3A A6G G29A, 0.25.
Regarding G2U G19A U28A G30A G44U C46U, the self-cleavage is 0.04.
With C3A A4G C15U the figure was 0.71; with G2U G29U C31U G40A, 0.06; with G2U C23U A25G, 0.03.
As for C3A A4G A6U C15U G27C C31U A39C G44U C46U, the self-cleavage stood at 0.07.
With C3A A4C C10A G33A G44U the figure was 0.63; with C3A A4U C8G U28G, 0.26; with C3A A4U A11G A14G C15A G22U G27C, 0.01.
G2U G21C G33A: the self-cleavage came out at 0.08.
Take G2U G21A C42G C46A: the self-cleavage was found to be 0.03.
With G2U G29A G33A G36U A41G the figure was 0.01; with C3A A4U U9C C23U G36A C45G, 0; with G2U U20C C23A C37A G44C, 0.01.
With C3A A6G C23U G27A G35C the figure was 0.12; with G2U C37U C42G, 0.01.
With G2U G35C C37U the figure was 0.01.
For the variant G2U G21C A25C, the self-cleavage came out at 0.06.
With G2U G5C C45U the figure was 0.01; with G2U U20G U32C, 0.
Regarding G2U G17C C31G U38C G40C C46A, the self-cleavage is 0.
With G2U U34C A41U C45A the figure was 0.04.
With G2U G44A C46U the figure was 0.03.
With C3A A4G C23U the figure was 0.57; with G2U G7A A25G A26U G33U U38G, 0.01.
Take G2U G35A G36A: the self-cleavage came out at 0.05.
In the case of G2U G21U G30A G40A, the self-cleavage came out at 0.04.
For G2U U20C C23A A24G, the self-cleavage was found to be 0.03.
With G2U U32C A39C the figure was 0.04; with G2U C37U G44U C46G, 0.03.
With G2U G5U C8G G27U G33U the figure was 0.01.
With G2U G7C A14C the figure was 0.02; with G2U G22U G35U A39C, 0.1.
As to G2U U9G A12U, the self-cleavage worked out at 0.05.
With G2U G5A A25C A41U the figure was 0.04; with C3A A6G U38G, 0.21; with G2U G19A G27C U38A, 0.04.
As for C3A A4G G17A U34G, the self-cleavage amounted to 0.02.
With G2U G7A C13G C45U the figure was 0.02.
With G2U G17U G21C A26U the figure was 0.01.
Consider C3A A11C G19C A41U, for which the self-cleavage came to 0.02.
For G2U G19A A26G, the self-cleavage worked out at 0.04.
With G2U U9C C18A G21C G35C the figure was 0.01; with C3A A6G G33U C45A, 0.04.
On to C3A A6G U34A U38A A39C, for which the self-cleavage worked out at 0.04.
With G2U G5A U28A G29A the figure was 0.02.
In the case of G2U G7C C10U G30C, the self-cleavage worked out at 0.02.
With G2U G5A C8G G35A the figure was 0.03; with G2U G7A C15G C23A C42G G44C, 0.02; with G2U G5A A25G G40U, 0.02.
With C3A A4U C18U A26C the figure was 0.23; with G2U G5U U9C G27C C37U, 0.01.
With C3A A6U C37U C42G the figure was 0.01; with C3A A4G G19U G22C A25C, 0.34.
On to G2U C23U A24G, for which the self-cleavage was 0.04.
With G2U C23U A24C the figure was 0.03.
Turning to G2U G5U G40A, the self-cleavage was determined as 0.04.
With G2U G17A A24G the figure was 0.03; with C3A A4C G19C A26G G29A G36C C46A, 0.1; with G2U U28A G35U, 0.04.
With G2U G33A G40U the figure was 0.05; with G2U G7U G30A, 0.09; with G2U G19C G33U C46U, 0.02.
With G2U G19C A25C C37U the figure was 0.01; with G2U C31G G44C C45A, 0.01.
Regarding G2U U9G C10A C23A G30U C37A, the self-cleavage was determined as 0.
With G2U G21A U43A the figure was 0.06; with G2U G5A A11G C45A, 0.01; with G2U G7C C31U C42G C45U, 0.
With G2U G7U G19C G36C C45G the figure was 0.02; with G2U G5A A16G G22A U32A U34G G40A C46U, 0.02.
With C3A A6U G22U A25G the figure was 0.63.
Regarding G2U G35U A41U, the self-cleavage turned out to be 0.03.
With G2U G7A C15A A26G G27U the figure was 0.11.
With G2U U9G A11C A16U C42U the figure was 0; with G2U G5C C10A A39C, 0.02.
With G2U G17U C31U C37G U43A the figure was 0.07; with G2U U9A G19C G21A G22C, 0.03.
In the case of G2U U9G A11G U34C, the self-cleavage amounted to 0.01.
With C3A A4G A6U G17A G19C U20A C31U the figure was 0.04; with G2U G7A G21U A24U, 0.08; with C3A A6C G7C C23G, 0.19.
Turning to G2U G7U G22A G27C, the self-cleavage was determined as 0.03.
With G2U U32C G33A U38C the figure was 0.02; with C3A A11G A24C C37U U38G, 0.01; with G2U G5U U20C C23A U28A G40C, 0.04.
With C3A A6U G17U the figure was 0.17; with G2U G5U C8A U28C, 0.03.
With G2U G5U U20C the figure was 0.01.
With G2U G22A G35U G44U, the self-cleavage was 0.03.
With G2U G19A U28C G29C G30A the figure was 0.09; with G2U G7A A12U A16C, 0.03.
With G2U G21C C23A G30U the figure was 0.04; with G2U G5U U20G C31U, 0; with C3A A4G G7A, 0.11.
With G2U G7U U32A G36A the figure was 0.02; with G2U C31G C46A, 0.03; with G2U G22C C46U, 0.22.
Regarding G2U G7A G33C A41C C42G U43G, the self-cleavage is 0.03.
Turning to G2U G7A G17C A25G C37A, the self-cleavage came to 0.03.
With C3A A4C C15U U34C C46U the figure was 0.06.
With G2U U28C G33U the figure was 0.08; with G2U G33U U34A, 0.02; with G2U G29U G35U, 0.02.
With G2U U9G G40A the figure was 0.
Regarding G2U G5A A6C U38C, the self-cleavage stood at 0.05.
With G2U G17U G19A U34A G35U the figure was 0.02.
G2U G7C U28A A39U: the self-cleavage stood at 0.01.
As to G2U U9A C10A, the self-cleavage stood at 0.
On to G2U G7U C18U, for which the self-cleavage stood at 0.04.
With G2U G5U U9G A25C C46A the figure was 0.05; with C3A A4C A6G U9A C18A A41C, 0.05; with C3A A4G C10A A12U G30A U32A G35C, 0.01.

For the origin of these results see the RNAGym collection of RNA variant scans (doi:10.7554/elife.90254).
